Reference: PubChem BioAssay AID1476 (National Center for Advancing Translational Sciences (NCATS), 2009)
Values joined by “and” are separate entries in the source; they are usually repeats but may differ in a detail not shown here. Equal values may be shown once. In all, about 200,000 compounds went through this assay and about 4,500 (2.2%) were called active. The shares of active, inactive and inconclusive entries below differ from those in the screen. Calls follow the shape of the dose curve; as a rule, active = well fitted inhibition curve with a large enough effect; inconclusive = small, poorly fitted or top-dose-only effect, or effect the other way; inactive = flat fitted curve, though single readings scatter. Where the call is inconclusive, the potency comes from a doubtful curve fit.

target: Cruzipain (Trypanosoma cruzi) (UniProt P25779); assay: qHTS Assay for Promiscuous and Specific Inhibitors of Cruzain (without detergent); conditions: purified cruzain, Z-FR-AMC fluorescence, no detergent; also: nearly all actives have a fitted effect of over 40% in size;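 as to max response, negative = inhibition: plate controls were enzyme without inhibitor for no effect and buffer without enzyme for full effect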
Sequence of UniProt P25779 (P25779 whole entry, looked up): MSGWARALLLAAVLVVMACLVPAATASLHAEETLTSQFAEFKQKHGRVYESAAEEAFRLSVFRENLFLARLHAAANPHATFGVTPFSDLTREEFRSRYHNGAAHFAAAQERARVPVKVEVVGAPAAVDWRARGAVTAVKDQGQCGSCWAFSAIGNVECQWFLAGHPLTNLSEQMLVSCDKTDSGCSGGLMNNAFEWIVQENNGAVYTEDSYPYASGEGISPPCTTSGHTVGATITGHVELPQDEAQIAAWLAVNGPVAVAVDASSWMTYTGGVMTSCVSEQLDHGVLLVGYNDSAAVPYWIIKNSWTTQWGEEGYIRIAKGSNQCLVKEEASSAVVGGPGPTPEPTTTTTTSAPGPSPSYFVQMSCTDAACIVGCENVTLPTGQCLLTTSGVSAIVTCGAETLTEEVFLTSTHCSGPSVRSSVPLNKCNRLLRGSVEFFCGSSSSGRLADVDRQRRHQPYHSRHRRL
Summary of the method: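 Purified cruzain at 1.5 nM, pre-incubated 15 min with compound at room temperature in 100 mM sodium acetate pH 5.5, 5 mM DTT, 0.00005% Triton X-100. Reaction started with 2 uM Z-FR-AMC; AMC fluorescence increase over 60 s gives rate.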
Potency is read from the fitted curve at half-maximal effect; tags tell the direction and shape of the fitted curve.

SMILES | Potency | max response, negative = inhibition
CCOC(=O)N1CCC(NC(=O)c2cnn(-c3ccc(C)cc3)c2C2CCN(C(=O)OC(C)(C)C)CC2)CC1 | inconclusive: 10 µM [activator, partial curve] | –
N#Cc1ccc(NC(=O)c2ccc3c(c2)nnn3C2CCCC2)cc1 | – | inactive: 7.31%
N#C/C(=C\c1ccc(N2CCCCC2)o1)C(=O)Nc1cccc(Br)c1 | inconclusive: 39.8 µM [inhibitor, single point] | –
COc1cccc(NC(=S)/C(=C(\[O-])c2ccc(C)c([N+](=O)[O-])c2)[n+]2ccccc2)c1 | active: 25.1 µM | –
O=C(Cn1nnc(-c2ccccc2)n1)Nc1ccc2c(c1)OCO2 | inconclusive: 39.8 µM [inhibitor, single point] | –
COc1cccc(NC(=O)Cn2c(=O)n(CCCCC(=O)NCc3ccc4c(c3)OCO4)c(=O)c3ccccc32)c1 | – | inactive: -19.6%
CCOC(=O)c1c(C)c(C)n(Cc2ccc(OC)c(OC)c2)c1C | inconclusive: 31.6 µM [activator, single point] | –
COC(=O)[C@@]1(Cc2ccc(OC)cc2)[C@H]2c3cc(C(=O)N4CCCC4)n(CCSCCO)c3C[C@H]2CN1C(=O)c1ccccc1 | inconclusive: 7.94 µM [activator, full curve] and inconclusive: 3.98 µM [activator, full curve] | –
COc1ccccc1N1CCN(C(=O)c2cc3n(n2)C(C(F)(F)F)CC(c2ccco2)N3)CC1 (centres undefined) | inconclusive: 25.1 µM [activator, partial curve] | –
Cc1ccc(C(C)C)c(OCCCn2c(=O)oc3ccc(C)cc32)c1 | – | inactive: -4.82%
O=S(=O)(Cc1cc(Sc2ccc(Cl)cc2)nc(-c2ccccc2)n1)c1ccccc1 | inconclusive: 31.6 µM [inhibitor, single point] | –
Cc1ccccc1NC(=O)c1ccc(F)c(S(=O)(=O)N2CCc3ccccc3C2)c1 | inconclusive: 25.1 µM [inhibitor, single point] | –
Cc1cccc(OCCOCCn2c(-c3ccc(Cl)cc3)nc3ccccc3c2=O)c1C | – | inactive: 5.61%
Cc1sc(NC(=O)c2sc3nc4c(C)cccc4cc3c2N)c(C#N)c1C | inconclusive: 12.6 µM [inhibitor, partial curve, poor fit] | –
CCOC(=O)c1ccccc1NC(=O)c1nn(-c2ccc(C)cc2)c(=O)n(C)c1=O | – | inactive: -2.12%
CCc1ccc(S(=O)(=O)N2CCN(c3ccc(Cl)c(Cl)c3)CC2)cc1 | – | inactive: -0.452%
CCOC(=O)CC(C)(C)/C(C)=N/Nc1ccc([N+](=O)[O-])cc1[N+](=O)[O-] | – | inactive: -8.52%
CCCCN(Cc1ccco1)C(=O)c1cc2c(s1)-c1c(C)cccc1OC2 | inconclusive: 39.8 µM [inhibitor, single point] | –
COC(=O)/C=c1/s/c(=C(\C#N)C(=O)NCc2ccco2)n(-c2ccccc2)c1=O | inconclusive: 31.6 µM [activator, single point] | –
NS(=O)(=O)c1ccc(CCNc2nc3c(-c4cccc(F)c4)nnn3c3ccccc23)cc1 | active: 20 µM | –
Cc1ccccc1Cn1c(=O)n(CCC(=O)NCc2ccc3c(c2)OCO3)c(=O)c2ccccc21 | inconclusive: 31.6 µM [inhibitor, single point] | –
Cn1c(=O)cnc2cnc(Nc3ccccc3)nc21 | active: 25.1 µM | –

SMILES | Potency | max response, negative = inhibition
Cc1cccc(N(C)C(=O)CN2C(=O)COc3ccc(S(=O)(=O)N4CCCCCC4)cc32)c1 | inconclusive: 25.1 µM [activator, single point] | –
O=S(=O)(c1ccc(Br)cc1)N1CCN(c2cc(-c3ccccc3)nc3ncnn23)CC1 | inconclusive: 39.8 µM [inhibitor, single point] | –
CCOc1cc(/C=N\Nc2ccc([N+](=O)[O-])cc2)ccc1OCC(=O)Nc1ccc(C)c(C)c1 | inconclusive: 2.51 µM [inhibitor, full curve] | –
COc1cc2c(=O)c(S(=O)(=O)c3ccc(F)cc3)cn(Cc3ccccc3C)c2cc1OC | inconclusive: 31.6 µM [activator, single point] | –
C#CCn1c(COc2ccccc2C)nc2ccccc21 | – | inactive: -2.06%
COc1cccc(Nc2ncc3nc(C)c(=O)n(CCc4ccccc4)c3n2)c1 | – | inactive: 21.3%
CCOc1ccc(C(=O)N[C@H](C(=O)Nc2cccc(S(=O)(=O)N3CCCCC3)c2)C(C)C)cc1 | inconclusive: 39.8 µM [activator, single point] | –
CC(=O)Nc1ccc(S(=O)(=O)N2CCN(c3ccc([N+](=O)[O-])c(NCCN4CCOCC4)c3)CC2)cc1 | inconclusive: 39.8 µM [activator, single point] | –
COc1ccc(NS(=O)(=O)c2ccc(-n3nnc4ccccc43)c([N+](=O)[O-])c2)cc1 | inconclusive: 39.8 µM [inhibitor, single point] | –
CCCCN(c1ccccc1)S(=O)(=O)c1ccc2c(c1)CCN2C(=O)CCC(=O)O | inconclusive: 39.8 µM [activator, single point] | –
C#CCOc1ccc(Br)cc1/C=N/O | inconclusive: 12.6 µM [inhibitor, single point] | –
Cc1cccc(C(C)C)c1NC(=O)c1ccc(CN(c2ccccc2)S(=O)(=O)c2ccccc2)cc1 | inconclusive: 25.1 µM [inhibitor, single point] | –
Cc1cc(C)c2c(CC(=O)Nc3ccc(S(=O)(=O)N4CCCC(C)C4)cc3)coc2c1 (centres undefined) | inconclusive: 31.6 µM [inhibitor, single point] | –
O=C(/C=C/c1ccco1)Nc1ccc(Oc2ccc(Cl)cc2)cc1 | – | inactive: -6.7%
CN(C)c1oc(-c2ccccc2Cl)nc1C#N | inconclusive: 20 µM [activator, single point] | –
COc1ccc(NC(=O)c2ccc3ccccc3c2)cc1NS(=O)(=O)c1ccc(F)cc1 | inconclusive: 39.8 µM [inhibitor, single point] | –
Cc1ccnc(NS(=O)(=O)c2ccc(NC(=O)C(C)(C)Oc3ccc(Cl)cc3)cc2)n1 | inconclusive: 39.8 µM [activator, single point] | –
CC1CCN(c2nnc(NC(=O)Cn3c(=O)oc4ccccc43)s2)CC1 | inconclusive: 20 µM [inhibitor, partial curve, poor fit] | –
O=C(Nc1ccc(Cl)cc1F)c1oc(=O)c2ccccc2c1-c1ccccc1 | – | inactive: 18.1%
Cc1ccc(CN(c2ccc(C(=O)Nc3ccc4c(c3)OCO4)cc2)S(C)(=O)=O)cc1 | inconclusive: 25.1 µM [inhibitor, single point] | –
Cc1ccc(N=C2NC(=O)/C(=C/C=C/c3ccco3)S2)cc1 | inconclusive: 31.6 µM [inhibitor, single point] | –
CN1c2ccccc2C2(C)CCCC3=Cc4cccc([N+](=O)[O-])c4OC312 (centres undefined) | inconclusive: 39.8 µM [inhibitor, single point] | –

SMILES | Potency | max response, negative = inhibition
CCOc1ccccc1CNC(=O)C1CCN(S(=O)(=O)c2cccc3nonc23)CC1 | – | inactive: -6.49%
COc1ccc2cc(C(=O)N/N=C/c3sc4ccccc4c3O)ccc2c1 | inconclusive: 39.8 µM [inhibitor, single point] | –
Cc1ccc(NC(=O)CN2C(=O)C(c3ccc(F)cc3)=NC23CCCCC3)c(C)c1 | – | inactive: -13.8%
COc1ccc(NC(=S)Nc2ccc(OCc3ccccc3)cc2)c(OC)c1 | inconclusive: 31.6 µM [inhibitor, single point] | –
CCC(Oc1ccccc1)C(=O)Nc1ccc(S(=O)(=O)Nc2cnc3ccccc3n2)cc1 (centres undefined) | inconclusive: 39.8 µM [activator, single point] | –
O=c1[nH]c2ccc(NCc3ccc(-c4cccc(Cl)c4)o3)cc2[nH]1 | inconclusive: 31.6 µM [inhibitor, single point] | –
CCOc1ccc(S(=O)(=O)N2CCN(c3cc(Cl)ccc3Cl)CC2)c2ccccc12 | active: 10 µM | –
O=C1c2ccccc2C(=O)N1c1ccc(Cl)cc1 | – | inactive: -0.809%
O=C(Nc1nnc(SCC(=O)N2CCCc3ccccc32)s1)c1ccc2ccccc2c1 | inconclusive: 39.8 µM [inhibitor, single point] | –
N#Cc1c(NC(=O)CSc2nc3ccccc3c(=O)n2Cc2ccco2)sc2c1CCCC2 | active: 10 µM | –
Fc1cccc2sc(Nc3nnc(-c4ccco4)o3)nc12 | inconclusive: 25.1 µM [inhibitor, single point] | –
COCCn1c(CCC(=O)Nc2cc(C)ccc2C)nc2cccnc21 | inconclusive: 0.0398 µM [activator, full curve, poor fit] | –
COC(=O)N1CCC2(CC1)CCN(C(c1ccccc1)c1ccccc1)CC2 | – | inactive: 11.7%
CC(=O)Nc1ccc(/C=N/NC(N)=S)cc1 | active: 11.2 µM | –
O=C(Nn1c(O)c(C=C2N=c3ccccc3=N2)sc1=S)c1cccc(Cl)c1 | inconclusive: 31.6 µM [inhibitor, single point] | –
O=C(NCCc1c[nH]c2ccccc12)c1c(Cl)nc2sccn12 | inconclusive: 39.8 µM [inhibitor, single point] | –
Cc1ccc(Nc2ncnc3c2cnn3-c2ccccc2)c(C)c1 | – | inactive: -0.789%
COc1ccccc1-c1cncnc1NCc1ccccc1 | – | inactive: 4.21%
COc1cc(NC(=O)CN2CCN(c3ccccc3F)CC2)c(C)cc1[N+](=O)[O-] | active: 25.1 µM | –
CCOCCCNC(=O)C(c1ccccc1)N(Cc1cccs1)C(=O)c1ccc(NC(C)=O)cc1 (centres undefined) | inconclusive: 39.8 µM [activator, single point] | –
